# In the supplement of paper PMC8728848:
# Some of the results follow.
# Legend:
# Assay in all cases: glycan array binding signal (z-score within array); higher = stronger binding
# Conditions in all cases: glycan notation: IUPAC condensed, linker removed
# Fuc(a1-2)Gal = molecular target: Fuc(a1-2)Gal
# Procedure, shortened: (§1)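 The binding signal is a Z-score computed within each array. Data were drawn from 3228 arrays in the Consortium for Functional Glycomics database, restricted to those with a known protein sequence. Scores were averaged over arrays of the same protein sequence at different concentrations or buffers, and over linkers, and negative values can be taken as non-binding.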
# Fuc(a1-2)Gal(b1-3)GalNAc = molecular target: Fuc(a1-2)Gal(b1-3)GalNAc
# Procedure, shortened: as §1
# [1] = molecular target: Fuc(a1-2)Gal(b1-3)GalNAc(b1-3)Gal
# Procedure, shortened: as §1
# [2] = molecular target: Fuc(a1-2)Gal(b1-3)GalNAc(b1-3)Gal(a1-4)Gal(b1-4)Glc
# Procedure, shortened: as §1
# [3] = molecular target: Fuc(a1-2)Gal(b1-3)GalNAc(b1-4)[Neu5Ac(a2-3)]Gal(b1-4)Glc
# Procedure, shortened: as §1
# Fuc(a1-2)Gal(b1-3)GlcNAc = molecular target: Fuc(a1-2)Gal(b1-3)GlcNAc
# Procedure, shortened: as §1
# [4] = molecular target: Fuc(a1-2)Gal(b1-3)GlcNAc(b1-3)Gal(b1-4)Glc
# Procedure, shortened: as §1
# [5] = molecular target: Fuc(a1-2)Gal(b1-3)[Fuc(a1-4)]GlcNAc
# Procedure, shortened: as §1
# Fuc(a1-2)Gal(b1-4)Glc = molecular target: Fuc(a1-2)Gal(b1-4)Glc
# Procedure, shortened: as §1
# Fuc(a1-2)Gal(b1-4)Glc6S = molecular target: Fuc(a1-2)Gal(b1-4)Glc6S
# Procedure, shortened: as §1
# Fuc(a1-2)Gal(b1-4)GlcNAc = molecular target: Fuc(a1-2)Gal(b1-4)GlcNAc
# Procedure, shortened: as §1
# [6] = molecular target: Fuc(a1-2)Gal(b1-4)GlcNAc(b1-3)Gal(b1-4)GlcNAc
# Procedure, shortened: as §1
# [7] = molecular target: Fuc(a1-2)Gal(b1-4)GlcNAc(b1-3)Gal(b1-4)GlcNAc(b1-3)Gal(b1-4)GlcNAc
# Procedure, shortened: as §1
# [8] = molecular target: Fuc(a1-2)Gal(b1-4)GlcNAc6S
# Procedure, shortened: as §1
# [9] = molecular target: Fuc(a1-2)Gal(b1-4)[Fuc(a1-3)]GlcNAc
# Procedure, shortened: as §1
# [10] = molecular target: Fuc(a1-2)Gal(b1-4)[Fuc(a1-3)]GlcNAc(b1-3)Gal(b1-4)[Fuc(a1-3)]GlcNAc
# Procedure, shortened: as §1
# [11] = molecular target: Fuc(a1-2)Gal(b1-4)[Fuc(a1-3)]GlcNAc(b1-3)Gal(b1-4)[Fuc(a1-3)]GlcNAc(b1-3)Gal(b1-4)[Fuc(a1-3)]GlcNAc
# Procedure, shortened: as §1
# Fuc(a1-2)Gal6S(b1-4)Glc = molecular target: Fuc(a1-2)Gal6S(b1-4)Glc
# Procedure, shortened: as §1
# [12] = molecular target: Fuc(a1-2)Gal6S(b1-4)Glc6S
# Procedure, shortened: as §1
# [13] = molecular target: Fuc(a1-2)Gal6S(b1-4)GlcNAc
# Procedure, shortened: as §1
# Fuc(a1-2)[Gal(a1-3)]Gal = molecular target: Fuc(a1-2)[Gal(a1-3)]Gal
# Procedure, shortened: as §1
# [14] = molecular target: Fuc(a1-2)[Gal(a1-3)]Gal(b1-3)GlcNAc
# Procedure, shortened: as §1
# [15] = molecular target: Fuc(a1-2)[Gal(a1-3)]Gal(b1-4)Glc
# Procedure, shortened: as §1
# [16] = molecular target: Fuc(a1-2)[Gal(a1-3)]Gal(b1-4)GlcNAc
# Procedure, shortened: as §1
# [17] = molecular target: Fuc(a1-2)[Gal(a1-3)]Gal(b1-4)[Fuc(a1-3)]GlcNAc
# Procedure, shortened: as §1
# [18] = molecular target: Fuc(a1-2)[Gal(a1-4)]Gal(b1-4)GlcNAc
# Procedure, shortened: as §1
# [19] = molecular target: Fuc(a1-2)[GalNAc(a1-3)]Gal
# Procedure, shortened: as §1
# [20] = molecular target: Fuc(a1-2)[GalNAc(a1-3)]Gal(b1-3)GlcNAc
# Procedure, shortened: as §1
# [21] = molecular target: Fuc(a1-2)[GalNAc(a1-3)]Gal(b1-4)Glc
# Procedure, shortened: as §1
# [22] = molecular target: Fuc(a1-2)[GalNAc(a1-3)]Gal(b1-4)GlcNAc
# Procedure, shortened: as §1
binder,measurement,setting,value
"MCI4 (Toxoplasma gondii), Q9XZH7 (protein) MRASLPVHLVVCTQLSAVWFGVAKAHGGHRLEPHVPGFLQGFTDITPAGDDVSANVTSSEPAKLDLSCVHSDNKGSRAPTIGEPVPDVSLEQCAAQCKAVDGCTHFTYNDDSKMCHVKEGKPDLYDLTGGKTASRSCDRSCFEQHVSYEGAPDVMTAMVTSQSADCQAACAADPSCEIFTYNEHDQKCTFKGRGFSAFKERGVLGVTSGPKQFCDEGGKLTQEEMEDQISGCIQLSDVGSMTADLEEPMEADSVGACMERCRCDGRCTHFTFNDNTRMCYLKGDKMQLYSSPGDRTGPKSCDSSCFSNGVSYVDDPATDVETVFEISHPIYCQVICAANPLCTVFQWYASEAKCVVKRKGFYKHRKTGVTGVTVGPREFCDFGGSIRDREEADAVGSDDGLNAEATMANSPDFHDEVECVHTGNIGSKAQTIGEVKRASSLSECRARCQAEKECSHYTYNVKSGLCYPKRGKPQFYKYLGDMTGSRTCDTSCLRRGVDYSQGPEVGKPWYSTLPTDCQVACDAEDACLVFTWDSATSRCYLIGSGFSAHRRNDVDGVVSGPYTFCDNGENLQVLEAKDTE",glycan array binding signal (z-score),Fuc(a1-2)Gal,-0.217
same,glycan array binding signal (z-score),Fuc(a1-2)Gal(b1-3)GalNAc,-0.219
same,glycan array binding signal (z-score),[1],-0.203
same,glycan array binding signal (z-score),[2],-0.22
same,glycan array binding signal (z-score),[3],-0.197
same,glycan array binding signal (z-score),Fuc(a1-2)Gal(b1-3)GlcNAc,-0.202
same,glycan array binding signal (z-score),[4],-0.197
same,glycan array binding signal (z-score),[5],-0.212
same,glycan array binding signal (z-score),Fuc(a1-2)Gal(b1-4)Glc,-0.217
same,glycan array binding signal (z-score),Fuc(a1-2)Gal(b1-4)Glc6S,-0.201
same,glycan array binding signal (z-score),Fuc(a1-2)Gal(b1-4)GlcNAc,-0.204
same,glycan array binding signal (z-score),[6],-0.214
same,glycan array binding signal (z-score),[7],-0.219
same,glycan array binding signal (z-score),[8],-0.213
same,glycan array binding signal (z-score),[9],-0.208
same,glycan array binding signal (z-score),[10],-0.21
same,glycan array binding signal (z-score),[11],-0.227
same,glycan array binding signal (z-score),Fuc(a1-2)Gal6S(b1-4)Glc,-0.184
same,glycan array binding signal (z-score),[12],-0.192
same,glycan array binding signal (z-score),[13],-0.208
same,glycan array binding signal (z-score),Fuc(a1-2)[Gal(a1-3)]Gal,-0.178
same,glycan array binding signal (z-score),[14],-0.202
same,glycan array binding signal (z-score),[15],-0.206
same,glycan array binding signal (z-score),[16],-0.195
same,glycan array binding signal (z-score),[17],-0.204
same,glycan array binding signal (z-score),[18],-0.203
same,glycan array binding signal (z-score),[19],-0.186
same,glycan array binding signal (z-score),[20],-0.2
same,glycan array binding signal (z-score),[21],-0.22
same,glycan array binding signal (z-score),[22],-0.21
